Results: the supplement of paper PMC11417369
± gives the standard deviation of the averaged measurements. Some of the results follow.

What follows are sequences tested on PfAP2-G AP2 domain (GST-tagged) (assay: gcPBM binding intensity (ln(normalized median fluorescence intensity)); higher = stronger DNA binding).
Method in brief: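 In this array assay, P. falciparum DNA-binding domains with a GST tag, expressed in E. coli, were applied for 1 h to primer-extended double-stranded 36-bp intergenic genomic probes and negative controls on an Agilent 4 × 180k array. Bound protein was visualised with Alexa488 anti-GST antibody at 488 nm. Binding intensity is the highest Masliner-normalised natural-log median intensity across replicate spots of either probe orientation.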

Sequence | gcPBM binding intensity (ln)
TTATTTTATTTAGGGTGTACCCAATTTTTCCATATG [XGTACX_site4957] | 11.5 ± 0.86
GTTATATATTTTTATGCATGCATTTTTAAATATATA [TGCATGCA_site175] | 9.8 ± 0.15
TATATATATTTATGCACACAAAATATATTATAGAAT [CACACA_site3740] | 10.14 ± 0.057
AATGTTTATTTTGTTTGTACATAAAATGAATAAAAT [XGTACX_site1456] | 11.1 ± 0.77
AAAATATACATATATGCATGCATATAAATAAAAAAA [TGCATGCA_site812] | 9.795 ± 0.064
ATACATAAATTTTGTACACACAAAAAAAAAAAAGCT [CACACA_site1351] | 11.2 ± 0.87
TTTATATATATAAATATGTAGATAACAATATTCTGA [TGCATGCA_negctrl_site554] | 9.78 ± 0.23
TTATTCCTTTTCCTTTTTTTTTTTTAACCAAAAAAA [CACACA_negctrl_site309] | 10.2 ± 0.38
AATGATAAATAAAAAGCATGCAACAAATAAAAATAA [TGCATGCA_site453] | 10 ± 0.2
AACAAAACTTTGGATACATGCAAAATTTTTAAATGA [TGCATGCA_site249] | 9.935 ± 0.035
GATAAAACGTTATGCACACGTACGTGAGTATTTATA [CACACA_site1570] | 11.1 ± 0.68
GTTTTTTTGTTTTAAAGTACTTAAAAAAAAAATATA [XGTACX_site6998] | 11.3 ± 0.84
ATATATATATGTTTATGTACTTATAATAATATAACT [XGTACX_site4828] | 11.2 ± 0.76
TAATTTAAGAAAAAATGTACACAAATATAATAATAG [XGTACX_site8317] | 11.5 ± 0.81
AATAGTAAAAGATATACACACACCAAAAAATAGAAT [CACACA_site2289] | 10.13 ± 0.014
ATTATACATATGTATGCACACATACATACACATATA [CACACA_site9155] | 10.3 ± 0.35
GCATGGAACCATATATGTACATATATAAATAAATAA [XGTACX_site4996] | 11.2 ± 0.63
GTATCTTTCAAAATATGTACATATATATATGTGTGT [XGTACX_site3512] | 11.3 ± 0.78
AACTTTATTCCTAATTGTACACATATATATATATAT [XGTACX_site6823] | 11.5 ± 0.84

Sequence | gcPBM binding intensity (ln)
ATACATATATGTGTGTGTACATAAATGTATATATTT [XGTACX_site6242] | 11.3 ± 0.91
GATTTATATAATTCAAGTACTAAAAATATTTTTAAT [XGTACX_site5285] | 10.8 ± 0.61
CGTATAACATATGACACACACACATACATACACAAA [CACACA_site1803] | 10.3 ± 0.34
TTAATAATAAATGAAAGTACATATAAAAAAAAAAAA [XGTACX_site717] | 11 ± 0.91
AAAAAAAATATCTATGCATGTAATATTATGATATTG [TGCATGCA_site546] | 9.585 ± 0.078
TAACATTAAAATAAAAGTACTTAATAATATTAAGTA [XGTACX_site5920] | 11.1 ± 0.87
CAGATTTATTCAAACGCATGCTGTTTTAAAATAAAA [TGCATGCA_site874] | 9.87 ± 0.21
TGTATATTTGATTCATGTACATATTTTATTTTAACT [XGTACX_site5169] | 11.2 ± 0.49
TAAGACTATTAAAAAATTGAGTACATGAACTGTTCA [GTGCAC_negctrl_site670] | 11.4 ± 0.98
AAATATAAAAAATATACACACATATATAATATATAT [CACACA_site2963] | 9.84 ± 0.014
TATATATATATATATACACACATACATATATATATT [CACACA_site8185] | 10.2 ± 0.34
ACATAAATATATTTTTCACACATCCTTAGTTATGAA [CACACA_site5179] | 10.1 ± 0.18
ATCCGCTGCCTTTTGGTGCAGAACATAATCATGTAA | 10.2 ± 0.35
TTTAAAATATTAAAATGTACATATATATATATATAT [XGTACX_site6784] | 11 ± 0.63
ATATTGTAAGTAAACACACACACATCTATAGGTATA [CACACA_site6462] | 10.06 ± 0.071
AATGTATTTAAACTGACACACAAAAAAAATAAAATA [CACACA_site2138] | 10.4 ± 0.3
AATGGTAATCCACATACACACACACCGACACATATA [CACACA_site8876] | 10.3 ± 0.26
ATCGCGAAGTAGCATTCACACACAGCAAAATATATA [CACACA_site9162] | 9.95 ± 0.16
AACATTTATATAAAAGAACACACATATAAAATATTA [CACACA_site9199] | 9.9 ± 0.12

Sequence | gcPBM binding intensity (ln)
AAAAAAATTACGCAAGTGCATATAATTTAACAAAAA | 9.95 ± 0.14
ATATATATATATCACGCACACACGAATTTTAAATAT [CACACA_site3131] | 10.3 ± 0.42
AACAATAGTAAAAATACACACATTAAACTTCATTTC [CACACA_site2126] | 9.87 ± 0.14
ATACAATGATATATACATATATATATATATATATAT [TGCATGCA_negctrl_site359] | 10.3 ± 1
AAAAAAAAAAAAAAAAAAAAAAAAAAAAAAAAAAAA [CACACA_negctrl_site204] | 11.2 ± 0.58
CATTTACCCTTATTAACACACAAAATAAAATACGCT [CACACA_site7249] | 10.2 ± 0.16
AAATAACAAAAGAAGGTGCTCATAAAAATTCATACA [GTGCAC_site9864] | 10.1 ± 0.24
AAAAAAAAAAAACATACACACATACATACATATATA [CACACA_site8222] | 9.86 ± 0.099
CACATACACATACAAACACACATTATGTATATATAT [CACACA_site1599] | 10.1 ± 0.11
GAAAGGACAAGAATAGTGCACATGCAATGTTATTTT [GTGCAC_site9985] | 10.4 ± 0.21
ACAAAATTTTTAAGAACACACAAAAATGTACTATCG [CACACA_site2550] | 10.9 ± 0.53
AATCATGCTCCGGAAAGTACATAAATAAATAAATAA [XGTACX_site1690] | 11.2 ± 1.1
AAACAATTTTTTAAAAGTACTTGAAAATTGTGAAAT [XGTACX_site2461] | 11.2 ± 0.68
ATATATACAACTAAAGAACACACATCATTGTTCATT [CACACA_site9224] | 9.84 ± 0.13
TTCTATATATTTGGAAGTACATTATATTTATTTTTT [XGTACX_site3172] | 11.1 ± 0.73
TAAAATTTTTGTTTTTGTACGAAACATCAATTTTAC [XGTACX_site4963] | 10.7 ± 0.34
TTATTTATAAGTAATATTATATATTCTTTTAATACA [CACACA_negctrl_site471] | 9.615 ± 0.049
CATATATAAATATGTACACACATATGTATGATCTCA [CACACA_site3868] | 11.4 ± 0.81
ATAGGCAAAAAGTGTACACATTCATTTATATAAATA [CACACA_site4480] | 11.7 ± 0.79
